Measurements published in the supplement of paper PMC3334620.
The full ranking holds about 33,000 sequences; the median of “E-score (-0.5 to 0.5)” is about -0.043, and the highest 2% start at about 0.37. Some of the results follow.

target: T1, Upc2 (UniProt Q12151); experiment: PBM E-score (8-mer binding enrichment) (E-score (-0.5 to 0.5)); higher = stronger / more preferred TF binding; most listed sequences are background and not binding sites; details: protein concentration: 200 nM; construct: GST-full length
T1 sequence: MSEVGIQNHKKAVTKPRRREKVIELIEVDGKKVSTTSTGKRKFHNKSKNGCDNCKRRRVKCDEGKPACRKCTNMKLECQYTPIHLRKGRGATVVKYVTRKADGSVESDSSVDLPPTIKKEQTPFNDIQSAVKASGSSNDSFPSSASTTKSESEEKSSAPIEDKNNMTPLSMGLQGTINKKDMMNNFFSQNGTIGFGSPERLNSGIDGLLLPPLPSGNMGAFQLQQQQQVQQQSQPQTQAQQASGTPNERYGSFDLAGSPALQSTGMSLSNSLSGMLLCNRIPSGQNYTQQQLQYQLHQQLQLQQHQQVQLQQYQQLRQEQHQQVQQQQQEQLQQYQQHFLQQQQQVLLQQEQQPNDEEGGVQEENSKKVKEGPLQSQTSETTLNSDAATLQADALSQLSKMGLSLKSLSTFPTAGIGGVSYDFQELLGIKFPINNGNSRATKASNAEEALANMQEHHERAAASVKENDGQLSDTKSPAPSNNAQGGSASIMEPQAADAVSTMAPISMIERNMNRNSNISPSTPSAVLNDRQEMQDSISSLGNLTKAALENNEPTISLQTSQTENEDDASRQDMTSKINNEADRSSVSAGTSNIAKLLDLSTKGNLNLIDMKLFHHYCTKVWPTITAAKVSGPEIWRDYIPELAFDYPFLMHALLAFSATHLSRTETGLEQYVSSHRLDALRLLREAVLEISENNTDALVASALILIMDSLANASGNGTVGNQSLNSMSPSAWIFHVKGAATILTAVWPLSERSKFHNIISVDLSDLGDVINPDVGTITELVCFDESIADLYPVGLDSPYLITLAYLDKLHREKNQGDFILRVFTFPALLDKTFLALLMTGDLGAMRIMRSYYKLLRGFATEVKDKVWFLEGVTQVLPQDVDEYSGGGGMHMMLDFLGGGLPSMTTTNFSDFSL
Summary of the method: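 Universal all-10-mer Agilent arrays, double-stranded by primer extension on fresh or once-stripped slides, were probed with about 100-200 nM GST-tagged yeast transcription factors made by PURExpress. Fluorescent anti-GST detected bound protein, and masliner normalised the scans. E-scores from the Universal PBM Analysis Suite were given to each ungapped eight-base word pooled with its reverse complement.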

Row | Sequence | PBM E-score
1 | ACTTAAAA | 0.0711
2 | ATGCGCGC | -0.00398
3 | ACGGTTGC | 0.0783
4 | AAGGGGCC | -0.169
5 | CTGGCCAA | -0.163
6 | CGGCTATC | 0.0416
7 | CACATTCC | -0.127
8 | CCCATAGG | -0.0777
9 | GTATCAAA | 0.159
10 | CCTTGGCA | -0.286
11 | ATTCCCGG | -0.0911
12 | AGGTAGAG | -0.186
13 | CGGCAGTA | -0.062
14 | ACAGCGAC | 0.0109
15 | AAGCTTGC | -0.137
16 | GGACGCTA | -0.14
17 | ACCGCGAC | -0.056
18 | CCGTAGAA | 0.118
19 | GGCCCATA | -0.135
20 | TTAAGAAA | 0.0858
21 | AAAAATAA | 0.0718
22 | CACGTGGG | -0.0926
23 | AGAAAATA | -0.016
24 | CCCGGTCC | -0.168
25 | GCTCAAGC | 0.041

Row | Sequence | PBM E-score
26 | AAATCTTC | -0.014
27 | GAATTCCA | -0.0846
28 | ACCTGCCT | -0.13
29 | CTAGATAG | -0.0499
30 | ATACGGAA | 0.372
31 | CCGATCGA | 0.0772
32 | AGTCACGC | -0.155
33 | TCCCAGGA | -0.18
34 | GATAGAAA | 0.0471
35 | TGGCCCCA | -0.258
36 | ACTTGGGC | -0.355
37 | CCTAAGAG | -0.0375
38 | AGAGAACC | -0.188
39 | AACCCCCT | -0.343
40 | CGTTATCA | 0.0299
41 | CTTATGAA | -0.00538
42 | TACAGTAA | 0.0863
43 | GTTCGAAA | 0.12
44 | AAGTTTTA | 0.0896
45 | ATAGGTTC | 0.0982
46 | AAGCAATC | -0.00105
47 | AAAGTAGC | -0.109
48 | ACTCTGTA | -0.00546
49 | ATGACGGG | -0.153
50 | ATTACATG | 0.00974

Row | Sequence | PBM E-score
51 | CATGGAAG | -0.176
52 | GAAATCGA | -9e-05
53 | CCCTTCGA | -0.276
54 | GAGGTTGC | -0.073
55 | AGAACTCC | 0.0252
56 | GTGGGGTA | 0.045
57 | ACTCGTTG | 0.198
58 | TGTTCGAA | 0.132
59 | AACATGAA | 0.0331
60 | CTCGTTTC | 0.452
61 | CGAGGCAC | 0.0661
62 | CCGTAATA | 0.253
63 | CGAGAGAA | 0.113
64 | GGAATTAC | 0.175
65 | CGCTCTCA | 0.00166
66 | AATAGGAT | 0.0842
67 | TACGTTGA | 0.249
68 | AGAATCCT | -0.302
69 | TAGTGTCA | 0.04
70 | AGCTTCAA | -0.0931
71 | TCCCGGAA | -0.0742
72 | AAGACAGC | -0.222
73 | ATTTTAAC | 0.216
74 | ATTCACCC | -0.25
75 | CCCCCTAC | -0.265

Row | Sequence | PBM E-score
76 | CCAATGAA | -0.198
77 | CGTGTATC | 0.152
78 | ACCACTGA | 0.0535
79 | ATATAGTC | 0.0853
80 | GGAGTACC | -0.202
81 | ATGAAATC | -0.0105
82 | ACACCCGA | 0.115
83 | GCTGAACC | 0.0322
84 | AAGATTCC | -0.0153
85 | AGTATATG | 0.0175
86 | CATTGACA | -0.295
87 | CCCTCGTA | 0.465
88 | CGCCCGGC | -0.154
89 | AGGGCGTG | -0.0584
90 | GGAACCGA | 0.237
91 | ATGACCAT | 0.0665
92 | CACGAAGG | 0.00451
93 | CTGCATGA | -0.228
94 | AACGACGT | 0.408
95 | CCAACGCG | -0.0142
96 | AACGCCAT | -0.173
97 | GCAAACGA | 0.462
98 | ACGCGAGA | 0.216
99 | CTATCTTC | -0.00165
100 | GAGCAAAC | 0.149

Row | Sequence | PBM E-score
101 | GAAGCGGA | -0.0922
102 | AGGACTAT | -0.349
103 | CCCGGCGA | -0.0917
104 | CCCCTAAC | -0.0466
105 | CATCACAG | -0.183
106 | GGATCAAA | -0.0796
107 | AAAGACGA | 0.0622
108 | GGATCGCC | -0.0204
109 | GACAGGTA | -0.0135
110 | AGGGAGAG | -0.177
111 | CACAGCAC | -0.222
112 | ACAAGTAC | 0.144
113 | GGCTACAC | -0.029
114 | AATTTTCG | 0.087
115 | AGGACAAG | -0.0298
116 | CGTATATA | 0.458
117 | CTCACAAG | -0.241
118 | GAGATCAA | 0.0415
119 | AAGCTGAT | -0.129
120 | CCTATAGA | -0.201
121 | CCCCGAAG | -0.224
122 | ATGTTTCA | -0.0195
123 | GAAGGGAC | -0.24
124 | AAGACCAT | -0.0684
125 | CCGGGACC | -0.137

Row | Sequence | PBM E-score
126 | CGGGATTC | 0.125
127 | AACGCTAA | 0.0548
128 | CTTTGGTC | 0.0127
129 | AGTTCTCC | -0.276
130 | CTAAATCC | 0.115
131 | GCTTGTAA | 0.0348
132 | ATCCATGG | -0.218
133 | CCTTGGTA | -0.0736
134 | AGCACTAA | 0.0655
135 | AGGTAGGC | -0.151
136 | CACGTCGA | -0.104
137 | CATTGAGG | -0.271
138 | AAACTGGG | -0.182
139 | CTATGCCC | -0.0652
140 | ATTACGCA | 0.0704
141 | CGAGGTCC | 0.0782
142 | AAACCTCT | -0.0987
143 | ATTCCATG | -0.0609
144 | GACCATCC | -0.254
145 | GATATACA | 0.0532
146 | AGAGTCCG | -0.0406
147 | ACCTTGTC | -0.253
148 | AGAGTTCC | -0.0879
149 | ACTCCGTG | -0.297
150 | CGCGATAA | 0.018

Row | Sequence | PBM E-score
151 | CAGATGGA | -0.0266
152 | ACTACACA | 0.162
153 | AACAGGTC | 0.056
154 | ATGAAAAC | 0.133
155 | TGACAGAA | 0.0501
156 | CCGATAAA | -0.00359
157 | CACAGACA | -0.00356
158 | CTCCTAAG | -0.273
159 | GGGTGATA | 0.0644
160 | AGGGGCCG | -0.158
161 | ATGCATTG | -0.178
162 | TCGCGTCA | -0.0308
163 | CCCGGAGC | 0.0981
164 | GTCCATTA | 0.0585
165 | ATGTCTGC | -0.15
166 | AACGACCC | 0.365
167 | GCACTATA | 0.216
168 | CCGCCATA | -0.0589
169 | CATCTCCG | -0.0798
170 | CCCACTCC | -0.17
171 | AAGCCACA | -0.0657
172 | ATTCTTCC | -0.17
